# ChEMBL document CHEMBL5316264, “Identification of N- and C-3-Modified Laudanosoline Derivatives as Novel Influenza PAN Endonuclease Inhibitors” (J Med Chem, 2023)
# pEC50: −log10 of the molar value. Activity calls are given as the source filed them. No cut-off for these calls is given here.
# Tested on: Influenza A virus
# Details: H1N1/A/WSN/33, MDCK, 48 h
row,Structure (SMILES),pEC50
1,COC(=O)[C@@H]1Cc2cc(O)c(O)cc2[C@H](Cc2ccc(O)c(O)c2)N1C(=O)c1ccc(C(F)(F)F)cc1,5.03
2,COC(=O)CNC(=O)[C@@H]1Cc2cc(O)c(O)cc2[C@H](Cc2ccc(O)c(O)c2)N1C(=O)c1ccccc1Cl,5.41
3,O=C(NC1CCCCC1)[C@@H]1Cc2cc(O)c(O)cc2[C@H](Cc2ccc(O)c(O)c2)N1C(=O)c1ccccc1Cl,< 4.70
4,CN1CCc2cc(O)c(O)cc2C1Cc1ccc(O)c(O)c1 (racemic),4.33
5,C=CC(=O)N1[C@H](C(=O)OC)Cc2cc(O)c(O)cc2[C@@H]1Cc1ccc(O)c(O)c1,5.27
6,CCCCOC(=O)[C@@H]1Cc2cc(O)c(O)cc2[C@H](Cc2ccc(O)c(O)c2)N1C(=O)c1ccccc1Cl,< 4.70
7,COC(=O)[C@@H]1Cc2cc(O)c(O)cc2[C@H](Cc2ccc(O)c(O)c2)N1C(=O)c1ccccc1,5.28
8,COC(=O)[C@@H]1Cc2cc(O)c(O)cc2[C@H](Cc2ccc(O)c(O)c2)N1C(=O)c1cccc(Br)c1,5.42
9,CNC(=O)[C@@H]1Cc2cc(O)c(O)cc2[C@H](Cc2ccc(O)c(O)c2)N1C(=O)c1ccccc1Cl,< 4.70
10,COC(=O)[C@@H]1Cc2cc(O)c(O)cc2[C@H](Cc2ccc(O)c(O)c2)N1C(=O)c1ccccc1Cl,5.74
11,COC(=O)[C@@H]1Cc2cc(O)c(O)cc2[C@H](Cc2ccc(O)c(O)c2)N1C(=O)c1ccccc1C(F)(F)F,5.04
12,CCCNC(=O)[C@@H]1Cc2cc(O)c(O)cc2[C@H](Cc2ccc(O)c(O)c2)N1C(=O)c1ccccc1Cl,< 4.70
13,COC(=O)[C@@H]1Cc2cc(O)c(O)cc2[C@H](Cc2ccc(O)c(O)c2)N1C(=O)c1c(Cl)cccc1Cl,5.28
14,COC(=O)[C@@H]1Cc2cc(O)c(O)cc2[C@H](Cc2ccc(O)c(O)c2)N1C(=O)c1ccc(O)cc1,< 4.70
15,COC(=O)[C@@H]1Cc2cc(O)c(O)cc2[C@H](Cc2ccc(O)c(O)c2)N1C(=O)c1ccccc1F,5.56
16,CCCOC(=O)[C@@H]1Cc2cc(O)c(O)cc2[C@H](Cc2ccc(O)c(O)c2)N1C(=O)c1ccccc1Cl,6.06
17,COC(=O)[C@@H]1Cc2cc(O)c(O)cc2[C@H](Cc2ccc(O)c(O)c2)N1C(=O)c1cccnc1,< 4.70
18,O=C(OCCO)[C@@H]1Cc2cc(O)c(O)cc2[C@H](Cc2ccc(O)c(O)c2)N1C(=O)c1ccccc1Cl,< 4.70
19,CCCCCOC(=O)[C@@H]1Cc2cc(O)c(O)cc2[C@H](Cc2ccc(O)c(O)c2)N1C(=O)c1ccccc1Cl,< 4.70
20,CCCCCCNC(=O)[C@@H]1Cc2cc(O)c(O)cc2[C@H](Cc2ccc(O)c(O)c2)N1C(=O)c1ccccc1Cl,< 4.70
21,COC(=O)[C@@H]1Cc2cc(O)c(O)cc2[C@H](Cc2ccc(O)c(O)c2)N1C(=O)CNC(C)=O,< 4.70
22,O=C(Oc1ccccc1)[C@@H]1Cc2cc(O)c(O)cc2[C@H](Cc2ccc(O)c(O)c2)N1C(=O)c1ccccc1Cl,5.87
23,COC(=O)[C@@H]1Cc2cc(O)c(O)cc2[C@H](Cc2ccc(O)c(O)c2)N1C(=O)c1ccc(Cl)cc1,5.60
24,COC(=O)[C@@H]1Cc2cc(O)c(O)cc2[C@H](Cc2ccc(O)c(O)c2)N1C(=O)c1ccccc1Br,5.47

row,Structure (SMILES),pEC50
1,COC(=O)[C@@H]1Cc2cc(O)c(O)cc2[C@H](Cc2ccc(O)c(O)c2)N1C(=O)c1cccc([N+](=O)[O-])c1,4.71
2,CN(C)C(=O)[C@@H]1Cc2cc(O)c(O)cc2[C@H](Cc2ccc(O)c(O)c2)N1C(=O)c1ccccc1Cl,4.90
3,COC(=O)[C@@H]1Cc2cc(O)c(O)cc2[C@H](Cc2ccc(O)c(O)c2)N1C(=O)c1ccc(F)cc1,5.52
4,COC(=O)[C@@H]1Cc2cc(O)c(O)cc2[C@H](Cc2ccc(O)c(O)c2)N1C(=O)c1ccncc1,< 4.70
5,COC(=O)[C@@H]1Cc2cc(O)c(O)cc2[C@H](Cc2ccc(O)c(O)c2)N1C(=O)C1CCCCC1,4.72
6,COC(=O)[C@@H]1Cc2cc(O)c(O)cc2[C@H](Cc2ccc(O)c(O)c2)N1C(=O)c1ccc(Cl)cc1Cl,5.32
7,O=C(Nc1cccnc1)[C@@H]1Cc2cc(O)c(O)cc2[C@H](Cc2ccc(O)c(O)c2)N1C(=O)c1ccccc1Cl,< 4.70
8,COC(=O)[C@@H]1Cc2cc(O)c(O)cc2[C@H](Cc2ccc(O)c(O)c2)N1C(=O)c1cccc(Cl)c1,5.62
9,CCOC(=O)[C@@H]1Cc2cc(O)c(O)cc2[C@H](Cc2ccc(O)c(O)c2)N1C(=O)c1ccccc1Cl,5.49
10,COC(=O)[C@@H]1Cc2cc(O)c(O)cc2[C@H](Cc2ccc(O)c(O)c2)N1C(=O)c1ccccc1[N+](=O)[O-],4.96
11,O=C(O[C@@H]1Cc2c(O)cc(O)cc2O[C@@H]1c1cc(O)c(O)c(O)c1)c1cc(O)c(O)c(O)c1 [EPIGALOCATECHIN GALLATE],4.52
12,O=C1c2c(O)c(=O)ccn2N([C@@H]2c3ccccc3SCc3c2ccc(F)c3F)[C@@H]2COCCN12 [BALOXAVIR],8.07
13,O=C(Nc1ccccc1)[C@@H]1Cc2cc(O)c(O)cc2[C@H](Cc2ccc(O)c(O)c2)N1C(=O)c1ccccc1Cl,4.81
14,CCCCCCC(=O)N1[C@H](C(=O)OC)Cc2cc(O)c(O)cc2[C@@H]1Cc1ccc(O)c(O)c1,4.78
15,COC(=O)[C@@H]1Cc2cc(O)c(O)cc2[C@H](Cc2ccc(O)c(O)c2)N1C(=O)c1ccc(Br)cc1,5.40
16,COC(=O)COC(=O)[C@@H]1Cc2cc(O)c(O)cc2[C@H](Cc2ccc(O)c(O)c2)N1C(=O)c1ccccc1Cl,5.54
17,COC(=O)[C@@H]1Cc2cc(O)c(O)cc2[C@H](Cc2ccc(O)c(O)c2)N1C(=O)c1cccc(F)c1,5.54
18,COC(=O)[C@@H]1Cc2cc(O)c(O)cc2[C@H](Cc2ccc(O)c(O)c2)N1C(=O)c1ccc2ccccc2c1,5.54
19,CCNC(=O)[C@@H]1Cc2cc(O)c(O)cc2[C@H](Cc2ccc(O)c(O)c2)N1C(=O)c1ccccc1Cl,< 4.70
20,O=C(Nc1ccncc1)[C@@H]1Cc2cc(O)c(O)cc2[C@H](Cc2ccc(O)c(O)c2)N1C(=O)c1ccccc1Cl,5.69
21,CCCN(CCC)C(=O)[C@@H]1Cc2cc(O)c(O)cc2[C@H](Cc2ccc(O)c(O)c2)N1C(=O)c1ccccc1Cl,< 4.70
22,COC(=O)[C@@H]1Cc2cc(O)c(O)cc2[C@H](Cc2ccc(O)c(O)c2)N1C(=O)c1cccc(C(F)(F)F)c1,5.07
23,COC(=O)[C@@H]1Cc2cc(O)c(O)cc2[C@H](Cc2ccc(O)c(O)c2)N1C(=O)c1cccc(O)c1,< 4.70
24,O=C(O)[C@@H]1Cc2cc(O)c(O)cc2[C@H](Cc2ccc(O)c(O)c2)N1C(=O)c1ccccc1Cl,4.71

# Tested on: Influenza A virus
# Details: H1N1(A/PR/8/34), MDCK, 48 h
row,Structure (SMILES),pEC50
1,CCC(CC)[C@H](NC(C)=O)[C@@H]1[C@H](O)[C@@H](C(=O)O)C[C@H]1NC(=N)N [PERAMIVIR ANHYDROUS],6.01
2,COC(=O)[C@@H]1Cc2cc(O)c(O)cc2[C@H](Cc2ccc(O)c(O)c2)N1C(=O)c1ccccc1Cl,5.70
3,CCCOC(=O)[C@@H]1Cc2cc(O)c(O)cc2[C@H](Cc2ccc(O)c(O)c2)N1C(=O)c1ccccc1Cl,5.89
4,O=C(Nc1ccncc1)[C@@H]1Cc2cc(O)c(O)cc2[C@H](Cc2ccc(O)c(O)c2)N1C(=O)c1ccccc1Cl,5.59

# Tested on: Influenza A virus
# Assay type: functional, organism-based
# Details: H1N1/A/WSN/1933, MDCK, dose 5-20 µM, time 24.0 hrs
row,Structure (SMILES),Activity
1,CCCOC(=O)[C@@H]1Cc2cc(O)c(O)cc2[C@H](Cc2ccc(O)c(O)c2)N1C(=O)c1ccccc1Cl,Active

# Tested on: Influenza A virus
# Assay type: functional, organism-based
# Details: H1N1/A/WSN/1933, MDCK, dose 5-20 µM, time 24.0 hrs
# Remark: another data set of the same source
row,Structure (SMILES),Activity
1,CCCOC(=O)[C@@H]1Cc2cc(O)c(O)cc2[C@H](Cc2ccc(O)c(O)c2)N1C(=O)c1ccccc1Cl,Active

# Tested on: Influenza A virus
# Assay type: functional, organism-based
# Details: H1N1/A/WSN/1933, MDCK, dose 5-20 µM, time 24.0 hrs
# Remark: another data set of the same source
row,Structure (SMILES),Activity
1,CCCOC(=O)[C@@H]1Cc2cc(O)c(O)cc2[C@H](Cc2ccc(O)c(O)c2)N1C(=O)c1ccccc1Cl,Dose-Dependent Effect

# Tested on: Influenza A virus
# Assay type: functional, organism-based
# Details: H1N1/A/WSN/1933, A549, dose 10.0 µM, time 48.0 hrs
row,Structure (SMILES),Activity
1,CCCOC(=O)[C@@H]1Cc2cc(O)c(O)cc2[C@H](Cc2ccc(O)c(O)c2)N1C(=O)c1ccccc1Cl,Active

# Tested on: Influenza A virus
# Assay type: functional, organism-based
# Details: H1N1/A/PR/8/34, MDCK, dose 2.5-10 µM, time 72.0 hrs
row,Structure (SMILES),Activity
1,CCCOC(=O)[C@@H]1Cc2cc(O)c(O)cc2[C@H](Cc2ccc(O)c(O)c2)N1C(=O)c1ccccc1Cl,Dose-Dependent Effect
